The values below come from ChEMBL document CHEMBL4888484, “Replenishing the malaria drug discovery pipeline: Screening and hit evaluation of the MMV Hit Generation Library 1 (HGL1) against asexual blood stage Plasmodium falciparum ,using a nano luciferase reporter read-out” (2022).

Molecules are shown by their SMILES. Hit rate of the full screen: of about 150,000 compounds, about 540 (0.36%) showed an effect of 50% or more. The list shows a part of the results.

The subject of the test is Plasmodium falciparum. In words: Primary screen in NF54 nanoGlo assay, in single point, at 2uM, 72h; a lower Z score goes with more inhibition. In kind it is functional, Erythrocyte. The settings on record: timepoint 72 hour.
The term % Inhibition denotes the drop in the measured response relative to a control, in per cent. For the compound `NC(=O)c1coc(CNC(=O)c2ccc3c(c2)CCCCC3=O)n1`, the “% Inhibition” value is -3% and the Z score is given as 0.38.
In the same order, the values of `CC1=C(C(=O)NC2CCN(S(=O)(=O)c3ccccc3)CC2)[C@H](C)NC(=O)N1` are 5% and -0.67.
As to `CC(C)(C)CC(=O)Nc1ccc2c(c1)cc(C(=O)Nc1ccccc1)n2Cc1ccccc1F`, the “% Inhibition” value is on record as -3% and the Z score is 0.36.
The corresponding values for `CCCCn1nccc1NC(=O)N[C@@H](C)Cn1cncn1` are -15% and 2.14.
As for `Cc1cccc(CN2CCN(C(=O)Cc3c[nH]cn3)[C@@H](C)C2=O)c1`, the “% Inhibition” value is listed as -4% and the Z score is on record as 0.51.
The corresponding values for `CC(C)n1cc(S(=O)(=O)N2CCC(=O)Nc3cnccc32)cn1` are -10% and 1.33.
The corresponding values for `CNc1nc(N2C[C@H]3CC[C@@H](C2)N(C)C3=O)nc2c1CCC2` are 6% and -0.76.
As for `O=C(Cc1nnc(-c2ccc3ncccc3c2)o1)Nc1ccc(F)cc1Cl`, the “% Inhibition” value is given as -10% and the Z score came to 1.
In the same order, the values of `O=C(NCC(=O)N1CC[C@H](Oc2ncccc2Br)C1)OCc1ccccc1` are -3% and 0.63.
With `O=C(c1cc(Br)ccc1Cl)N1CC(CN2C(=O)CCC2=O)C1`, the “% Inhibition” value is on record as -18% and the Z score was 2.33.
With `O=c1ccn(-c2ccc(F)c(F)c2)nc1-c1nc(-c2ccccc2)no1`, the “% Inhibition” value is -2% and the Z score is listed as 0.3.
The corresponding values for `C1CCC(n2nc(C3CC3)nc2C2CCC2)CC1` are -14% and 1.39.
In the same order, the values of `O=C(NC1CCCC1)C1CCN(S(=O)(=O)c2cc(Cl)ccc2Cl)CC1` are -12% and 1.66.
In the case of `CN(C(=O)C(C)(C)Nc1ncc(C(F)(F)F)cc1Cl)c1ccc(Cl)cc1`, the “% Inhibition” value is reported as 59% and the Z score is recorded as -7.64.
`Cc1ccc(N2C[C@@H](C(=O)NCc3nnc(C4CC4)o3)CC2=O)cc1`: the “% Inhibition” value was -12% and the Z score is 1.6.
The corresponding values for `Cc1cccc2c(=O)n(CC(=O)NCCCC3(C4OCCO4)CCCCCC3)cnc12` are 1% and -0.18.
In the case of `Cc1nc(CCCNC(=O)CC[C@H](C)N2CCN(C)CC2)sc1C`, the “% Inhibition” value is on record as -2% and the Z score is 0.24.
In the case of `COc1ccc(Br)cc1CN`, the “% Inhibition” value is -9% and the Z score stood at 1.75.
In the same order, the values of `CC(C)[C@@H]1CCCN1C(=O)CCn1nnc2ccccc2c1=O` are -4% and 0.48.
The corresponding values for `CS(=O)(=O)N1CC[C@H](n2cc(COCC3CC3)nn2)C1` are -5% and 0.88.
The corresponding values for `O=C(Nc1cnn(CCN2CCCCC2)c1)C(=O)Nc1cccc2cccnc12` are -15% and 2.43.
For `O=C(NC[C@H]1CCc2ccccc2O1)c1ccn2nnnc2c1`, the “% Inhibition” value is 2% and the Z score is recorded as -0.32.
The corresponding values for `CC(C)CN1C[C@@H]2CN(C(=O)Nc3ccc(F)cc3)CCN2C(C)(C)C1` are -12% and 1.52.
The corresponding values for `CCCC(=O)N1CC(OCc2ccc(Cl)cc2)C1` are -5% and 0.73.
For `CC(C)Cn1nccc1C(=O)NCc1ccnc(C#N)c1`, the “% Inhibition” value turned out to be 6% and the Z score is listed as -1.1.
On to `O=C(NC1CCN(c2[nH]cnc3ncnc2-3)CC1)C12CC(c3ccccc3)(C1)C2`, for which the “% Inhibition” value was 0% and the Z score is on record as -0.06.
In the case of `Cn1ncc(Cl)c1C(=O)NC[C@H]1CCCO1`, the “% Inhibition” value is recorded as 3% and the Z score was -0.44.
In the same order, the values of `CC(C)(C)C[C@H]1CCCN1Cc1ccc2cn[nH]c2c1` are -7% and 1.
The corresponding values for `O=C(CCc1ccc2c(c1)OCO2)Oc1ccc(N2CCCC2=O)cc1` are 1% and -0.1.
In the same order, the values of `CC(C)CNC(=O)Cc1cccc(N(Cc2ccc(F)cc2)C(=O)CC(C)C)c1` are -12% and 1.22.
`CCc1ccc(-n2ncc3c2NC(=O)C[C@]32C(=O)N(CC(N)=O)c3ccccc32)cc1`: the “% Inhibition” value is on record as -4% and the Z score came out at 0.43.
In the same order, the values of `C[C@H](O)C1CCN(C(=O)OC(C)(C)C)CC1` are -3% and 0.63.
In the same order, the values of `CCc1nc(-c2ccccc2)c(-c2ccccc2)c2cc(OC)c(OC)cc12` are -7% and 1.09.
As for `O=C(CCc1c(-c2ccc(Cl)cc2)nc2ccc(-c3ccccc3Cl)cn12)NCCN1CCOCC1`, the “% Inhibition” value is -1% and the Z score is on record as 0.14.
As to `CCN(CC)S(=O)(=O)Cc1cccc(C)c1`, the “% Inhibition” value is on record as -9% and the Z score was 1.21.
In the same order, the values of `Cc1cc(NC(=O)c2sc(-c3cn(C)c4ncccc34)nc2C)ccc1F` are -8% and 1.44.
For `CC1CCN([C@@H](CNS(=O)(=O)c2ccc(F)cc2F)c2cccs2)CC1`, the “% Inhibition” value is -16% and the Z score is 1.42.
The corresponding values for `OC1=Nc2c(ncn2-c2cccnc2)[C@@H](c2ccc(C(F)(F)F)cc2)C1` are 7% and -1.1.
The corresponding values for `CCc1cc(NC(=O)C(=O)NCc2ccc(C#N)cc2F)n(C)n1` are -3% and 0.63.
The corresponding values for `CC(C)Oc1ccccc1CNC[C@H]1CC(C(N)=O)=NO1` are -6% and 0.85.
For `O=C1CCCCCN1CCNS(=O)(=O)N1CCCCC1`, the “% Inhibition” value is -6% and the Z score was 0.83.
For `Cc1cccc(N2N=C(C(=O)NCCn3ccnc3)CCC2=O)c1`, the “% Inhibition” value is -2% and the Z score is listed as 0.28.
In the same order, the values of `O=C(c1cc(Br)co1)N1CCC[C@H](CCO)CC1` are -15% and 2.52.
The corresponding values for `Cn1cccc1CN(Cc1cccs1)C(=O)Cc1ccc(F)cc1` are -2% and 0.22.
`COc1ccc(F)c(F)c1C(=O)N(CCOc1ccccc1)C[C@H]1CCCO1`: the “% Inhibition” value is listed as -3% and the Z score amounted to 0.4.
The corresponding values for `COC(=O)c1c(F)cccc1NS(=O)(=O)c1cn[nH]c1` are 8% and -1.12.
In the same order, the values of `Cc1cc(Cl)ccc1NC(=O)c1c(C)sc2c(C)c(C)[nH]c12` are -7% and 0.94.
In the same order, the values of `CCn1nnc2c(=O)n(Cc3c(F)cccc3Cl)cnc21` are -3% and 0.54.
Turning to `Clc1ccc(OCc2ccccc2)c(CNCc2ccco2)c1`, the “% Inhibition” value was -1% and the Z score is on record as 0.11.
Regarding `O=C([C@H]1CCS(=O)(=O)C1)N1CC(O)(c2ccc(Cl)cc2)C1`, the “% Inhibition” value was -11% and the Z score is 1.48.
The corresponding values for `CCn1c(C)nc2cc(NS(=O)(=O)c3ccccc3)cc(C(=O)N[C@H]3CCOC(C)(C)C3)c21` are -3% and 0.38.
For `N#Cc1cccc(S(=O)(=O)CCN2CC3CC=CCC3C2)c1` (stereo not drawn), the “% Inhibition” value is -13% and the Z score stood at 1.2.
In the same order, the values of `CS(=O)(=O)N1CCN(C(=O)c2ccc3c(c2)CCO3)CC1` are -3% and 0.3.
In the same order, the values of `CCCNCc1c[nH]nc1-c1cccs1` are -9% and 1.21.
